# Laboratory results as given in the supplement of paper PMC11369174, “Proteome-scale characterisation of motif-based interactome rewiring by disease mutations” (Molecular Systems Biology, 2024).
# The other results are listed elsewhere or left out. These are enrichments in a pooled selection; single values are uncertain.
# T1: G3BP2_NTF2_1_Q9UN86_1_139
# T1 chain: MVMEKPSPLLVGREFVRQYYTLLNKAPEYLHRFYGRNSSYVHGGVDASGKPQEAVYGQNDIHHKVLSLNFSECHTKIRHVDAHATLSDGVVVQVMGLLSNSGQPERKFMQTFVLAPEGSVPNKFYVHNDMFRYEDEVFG
# T2: MSN_FERM_1_P26038_1_322
# T2 chain: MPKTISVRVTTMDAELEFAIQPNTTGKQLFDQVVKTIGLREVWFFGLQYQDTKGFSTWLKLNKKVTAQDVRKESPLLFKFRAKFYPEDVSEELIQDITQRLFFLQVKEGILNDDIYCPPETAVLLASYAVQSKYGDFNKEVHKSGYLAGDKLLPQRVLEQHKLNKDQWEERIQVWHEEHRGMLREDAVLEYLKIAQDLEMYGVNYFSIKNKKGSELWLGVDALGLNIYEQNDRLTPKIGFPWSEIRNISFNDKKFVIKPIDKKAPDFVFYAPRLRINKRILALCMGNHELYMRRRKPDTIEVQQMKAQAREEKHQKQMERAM
# Experiments:
# Assay in all cases: mean normalised NGS count of phage-displayed peptide after selection on bait (% of reads); baits are purified protein domains named by gene / domain / UniProt id / residues; peptides come from disordered regions of human proteins; higher = stronger enrichment / binding
# [1] = target: T1, G3BP2_NTF2_1_Q9UN86_1_139; details: replicate selections in which the peptide was seen: 6
# [2] = target: MAP1LC3B_ATG8__Q9GZQ8_2_119
# [3] = target: T2, MSN_FERM_1_P26038_1_322; details: replicate selections in which the peptide was seen: 3
# [4] = target: GABARAPL1_ATG8__Q9H0R8_2_115
# [5] = target: GABARAPL2_ATG8__P60520_2_115
# [6] = replicate selections in which the peptide was seen: 3
# [7] = replicate selections in which the peptide was seen: 2
# [8] = replicate selections in which the peptide was seen: 4
# [9] = replicate selections in which the peptide was seen: 6
# GABARAPL2_ATG8__P60520_2_115, sequence (chain, as listed by the source): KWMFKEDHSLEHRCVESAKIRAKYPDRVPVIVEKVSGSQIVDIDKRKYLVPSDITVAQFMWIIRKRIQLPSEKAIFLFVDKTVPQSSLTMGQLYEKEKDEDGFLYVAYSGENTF
binder,measurement,setting,value
YGFLTFGTEVSAAVLM [SLC38A8 271-286 mut A6NNN8.D283A],mean normalised NGS count,[1],0.0771
YGFLTFGTEVSADVLM [SLC38A8 271-286 wt],mean normalised NGS count,[1],2.94
LTFGTEVSADVLMSYP [SLC38A8 274-289 wt],mean normalised NGS count,[1],10.5
GWASTADPLSNMVLTF [NDUFS4 113-128 wt],mean normalised NGS count,[1],10.3
DPLAGTVFVDFGFHLL [ABCB4 1087-1102 mut P21439.Q1100H],mean normalised NGS count,[1],0.482
same,mean normalised NGS count,[2]; [6],0.0191
ISMGYDLGEAEFARIM [ACTN2 783-798 wt],mean normalised NGS count,[1],0.584
same,mean normalised NGS count,[3],0.194
LLSDYSNFGQFELTTF [MSH2 279-294 mut P43246.D283Y],mean normalised NGS count,[1],0.74
PFIYGDIPPGMVSEPL [SCN9A 60-75 wt],mean normalised NGS count,[1],0.127
PFVYGDIPPGMVSEPL [SCN9A 60-75 mut Q15858.I62V],mean normalised NGS count,[1],0.4
HDVGEFPVLFFGSNDY [NSD1 1789-1804 wt],mean normalised NGS count,[1],6.87
LFFGSNDYLWTHQAQV [NSD1 1797-1812 mut Q96L73.R1811Q],mean normalised NGS count,[1],1.44
DLLTFGQAQMNFPLGD [BCL11B 44-59 mut Q9H165.C48F],mean normalised NGS count,[1],49.2
DLLTFGQAQMNFPLGD [BCL11A 44-59 mut Q9H165.C48F],mean normalised NGS count,[1],49.2
ADIHDFEIIIHRVEWA [OCA2 665-680 mut Q04671.L674I],mean normalised NGS count,[4]; [7],0.012
same,mean normalised NGS count,[5]; [8],0.00841
same,mean normalised NGS count,[2]; [6],0.912
MESGNASGGDDDWTHL [SQSTM1 326-341 mut Q13501.D329G],mean normalised NGS count,[4]; [7],0.00476
same,mean normalised NGS count,[2]; [9],0.197
EFTFVDETDQQAVPDV [KIAA1109 1863-1878 wt],mean normalised NGS count,[4]; [7],0.0066
same,mean normalised NGS count,[5]; replicate selections in which the peptide was seen: 5,0.00869
DADSDFEVLMKTAHGH [RYR2 1338-1353 wt],mean normalised NGS count,[4]; [7],0.00876
same,mean normalised NGS count,[2]; [9],0.432
QTTIQDDPEQFEVIKQ [ARFGEF2 627-642 mut Q9Y6D5.V630I],mean normalised NGS count,[4]; [7],0.00257
QTTVQDDPEQFEVIKQ [ARFGEF2 627-642 wt],mean normalised NGS count,[4]; [7],0.0172
AVSKTEDVWVRIEDAP [APC 2650-2665 wt],mean normalised NGS count,[4]; [6],0.00486
EEFQYIGESQGYDIME [MSH2 852-867 wt],mean normalised NGS count,[4]; [6],0.0123
ADGWNQLNYITEELRN [SLC7A9 232-247 mut P82251.Y232C],mean normalised NGS count,[4]; [6],0.00779
TTIREERFEVLHGREA [TTN 909-924 mut Q8WZ42.V911I],mean normalised NGS count,[4]; [6],0.0116
same,mean normalised NGS count,[2]; [8],0.00929
HEVSAEEEWSYLEEEE [TTN 10414-10429 mut Q8WZ42.S10425L],mean normalised NGS count,[4]; [6],0.00522
EDDQRQADQDWYMMDE [DHX38 316-331 mut Q92620.R324Q],mean normalised NGS count,[4]; [6],0.0773
GRARADESTYVLVAHS [IFIH1 821-836 wt],mean normalised NGS count,[4]; [6],0.0409
YDGWNQLNYITEELRN [SLC7A9 232-247 wt],mean normalised NGS count,[4]; [8],0.0133
